Measured values taken from the supplement of paper PMC3334620.
In all, about 33,000 sequences were measured (“E-score (-0.5 to 0.5)”: median about -0.041, highest 2% from about 0.37 on). Some of the results follow.

Molecular target: T1, Ecm22 (UniProt Q05958)
T1 sequence: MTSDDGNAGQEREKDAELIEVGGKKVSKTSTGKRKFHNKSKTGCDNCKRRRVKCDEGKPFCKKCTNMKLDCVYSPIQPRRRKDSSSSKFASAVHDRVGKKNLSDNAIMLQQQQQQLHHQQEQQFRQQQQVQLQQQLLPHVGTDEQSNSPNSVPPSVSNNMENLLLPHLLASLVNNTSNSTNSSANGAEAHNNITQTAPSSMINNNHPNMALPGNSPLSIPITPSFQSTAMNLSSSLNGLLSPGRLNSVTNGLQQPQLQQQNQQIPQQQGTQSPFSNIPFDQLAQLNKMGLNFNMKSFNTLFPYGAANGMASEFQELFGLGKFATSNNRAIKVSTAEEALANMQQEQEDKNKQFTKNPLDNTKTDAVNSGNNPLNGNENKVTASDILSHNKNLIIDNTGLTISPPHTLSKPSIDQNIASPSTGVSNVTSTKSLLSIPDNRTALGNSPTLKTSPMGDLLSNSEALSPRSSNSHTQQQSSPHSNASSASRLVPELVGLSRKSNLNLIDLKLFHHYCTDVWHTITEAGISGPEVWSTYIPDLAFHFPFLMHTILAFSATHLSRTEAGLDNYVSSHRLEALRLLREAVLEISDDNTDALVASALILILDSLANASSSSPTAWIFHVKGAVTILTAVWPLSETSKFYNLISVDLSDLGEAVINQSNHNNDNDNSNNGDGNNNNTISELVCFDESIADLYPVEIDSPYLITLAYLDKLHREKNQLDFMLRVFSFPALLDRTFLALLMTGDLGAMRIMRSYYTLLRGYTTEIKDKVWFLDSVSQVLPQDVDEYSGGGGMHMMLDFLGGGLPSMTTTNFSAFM
Assay: PBM E-score (8-mer binding enrichment) (E-score (-0.5 to 0.5)); higher = stronger / more preferred TF binding; most listed sequences are background and not binding sites
Details: protein concentration: 200 nM; construct: GST-full length
Method: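 Universal 'all 10-mer' protein binding microarrays (Agilent AMADID 015681) probed with GST-tagged S. cerevisiae TFs (full-length or DBD) made by in vitro transcription/translation (PURExpress), about 100-200 nM. Bound TF was detected with fluorescent anti-GST. Each ungapped 8-mer (which stands for itself and its reverse complement) is scored by the PBM enrichment score (E-score), a modified Wilcoxon-Mann-Whitney statistic from -0.5 to +0.5, computed with the Universal PBM Analysis Suite. Scale: above 0.35 generally sequence-specific binding.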

Sequence	PBM E-score
AGGAAGTA	-0.1
CTCCCCGC	0.116
AAAAAGAT	-0.141
CCTAACGA	0.195
AACATGCG	0.136
GTTCCGTA	0.389
ACTAGAAG	-0.242
AGGATGCG	0.0907
CGCGTTGC	0.0744
CTTGACCA	-0.318
AGTTTTAC	0.164
ATGGCACC	-0.0523
CGGGTGCC	-0.052
AGAATTCG	0.0024
TGTTTGAA	-0.065
GGGGGTCA	-0.176
ACGTGGTG	-0.072
CAAGTTCC	-0.0984
AGATAGAG	-0.0841
GAACCAGA	-0.126
GGCCCCGA	-0.0915
CAGTTGAA	-0.0431
ACGCATCA	0.0479
ACTGTAAC	0.04
CGGTCAAG	0.0356

Sequence	PBM E-score
AAGTAGCG	-0.121
CATTGCGC	-0.0449
GGCACCAC	-0.143
AATTCCCT	-0.164
TAAGTATA	0.237
ATCACCGA	0.0324
TCCCCAGA	-0.236
ATAGACCA	0.0034
GCGAGTAA	0.114
GTGCACTA	0.00219
CACTAGTC	-0.301
TCAGAACA	-0.0575
GCTGTCAA	0.0292
AAGGAAGG	-0.0599
CCCACGGG	-0.185
CGGTAAGA	0.0089
AAGTGAGT	-0.154
ACCAGTGC	-0.00812
CAAGCTCC	-0.319
AACTGTGC	-0.293
ACGCCCAA	-0.153
CGGCTGGA	-0.076
AGTAATAC	0.0343
ACCTCTAG	-0.137
AAAGTAAC	-0.0745

Sequence	PBM E-score
GGCGCAAC	0.0334
AGTGAATA	-0.104
CGACAGTA	0.0736
AGGCGCCC	-0.244
AACACACC	0.0383
ATATTGCC	-0.0775
ACAAAGTA	0.199
AGTACATC	0.0703
CCCACAAA	-0.0896
CGGAGAAG	-0.219
CTTACGGA	0.0416
AAATAGTG	-0.00077
AACTCTCA	-0.108
CTCCTGGC	-0.125
AGTAAGAT	-0.075
GACTGGAA	-0.103
CAGTGGGA	-0.171
CATCAAAC	-0.0412
GGGTTGGA	-0.0518
GATCTACA	0.011
ACAGACCT	0.0802
ACGGTTGA	0.0702
AGTACCCG	0.182
CAAAGGTC	-0.263
AAAATTCA	0.0927

Sequence	PBM E-score
CCAGTCGA	0.118
AATCGGAT	0.255
GGGAACGA	0.492
AGTCTTCG	0.0716
CCCTGTCA	-0.00188
CGAACCAG	0.133
GGTTGTTA	0.095
AATGCAAT	-0.149
AGGGCAGA	-0.313
ACCCTGGA	-0.0612
TCTACCAA	-0.143
ATCGAGCG	0.16
CGCCTTTA	-0.0311
CAATTATA	-0.00144
GCTTGTGA	-0.29
CCAGTCTA	-0.106
CGGTAGTA	0.0518
GCTGCCTA	-0.101
ACGGGTGC	0.177
AAATCTAC	0.0781
ACCTGTCA	-0.14
CACCTATG	-0.00606
CTGCTCTA	0.0645
ATAGATGG	-0.18
GCGTGCTA	-0.195

Sequence	PBM E-score
CATGTTCC	-0.25
ACACCTAG	-0.0969
CGGCACGA	0.176
ACTTAACG	0.249
CACGCTGC	-0.0694
CCTTCGAC	-0.239
GATCTCTA	-0.13
CAAGAGGC	-0.309
AGGTCCAC	-0.158
AAAGCGGT	-0.0099
ATGTTCGC	0.219
CAGTGTTC	-0.0918
AAATCTGT	-0.0108
AAAATAGT	-0.134
AGCCCAAG	-0.249
CCACTGCG	-0.19
ATCTCGTC	0.158
GAGCGGCC	-0.145
ACAAGCGA	0.265
CCTGATAC	0.124
CCCCTCCG	0.0369
AAGTGTTG	0.0811
AACCAATA	-0.0892
TACAGTCA	0.101
AACGAACC	0.408

Sequence	PBM E-score
TGCCCCCA	-0.258
CCAGTTGC	-0.196
ATCATTAA	0.118
ACAGCGAA	0.105
TGAGAGCA	-0.102
ACCGTTCG	0.229
CGTGGCTA	-0.202
CATCAGCA	-0.15
GATCCATC	0.118
CATTGGGA	-0.132
AATCAATA	0.0985
CGCTCTGA	-0.116
ACGAAGAC	0.302
CCCCGGTC	-0.171
AACAAAGT	0.089
CCCGATTC	-0.00573
ATAAATCC	0.0568
ATTTGAAC	0.0528
ACACTGAC	0.0202
TACGCCAA	0.109
AAAGGGCG	-0.0368
CCCGCCAC	-0.0935
CTTCGTCA	0.117
CGATACAC	0.141
CGCCGAGA	-0.0335

Sequence	PBM E-score
AATATATG	0.151
CGTCAGCA	-0.0581
AGTACTCC	-0.0363
ACACGGGC	-0.0743
AACAGTCT	-0.144
AATTTTCT	-0.0351
GATCTAAC	0.0696
AGAAAAGC	0.0292
GGCGCACA	-0.322
GACGAGAA	0.138
TAATATCA	-0.117
CGTAAAGC	0.348
ATCTTACA	-0.0615
CTCATCCA	-0.213
TTGGGAAA	0.105
CCCGGTAG	-0.0581
ACCGAGCC	0.245
CCAATCGG	-0.218
TACTAGGA	-0.176
AGGACACT	-0.364
CCAAGAAG	-0.132
CCGCATAA	0.119
